# Assay results as given in the supplement of paper PMC8728848.
# Some of the results follow.
# B1: MGL1 (Mus musculus), P49300 (protein)
# chain: MIYENLQNSRIEEKTQEPGKAPSQSFLWRILSWTHLLLFSLGLSLLLLVVVSVIGSQNSQLRRDLGTLRATLDNTTSKIKAEFQSLDSRADSFEKGISSLKVDVEDHRQELQAGRDLSQKVTSLESTVEKREQALKTDLSDLTDHVQQLRKDLKALTCQLANLKNNGSEVACCPLHWTEHEGSCYWFSESEKSWPEADKYCRLENSHLVVVNSLEEQNFLQNRLANVVSWIGLTDQNGPWRWVDGTDFEKGFKNWAPLQPDNWFGHGLGGGEDCAHITTGGPWNDDVCQRTFRWICEMKLAKES
# How the values were obtained:
# Assay in all cases: glycan array binding signal (z-score within array); higher = stronger binding
# Details in all cases: glycan notation: IUPAC condensed, linker removed
# [1] = target: Neu5Ac(a2-3)Gal(b1-3)GlcNAc(b1-2)Man
# How it was run: (§1)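 The Consortium for Functional Glycomics database supplied 3228 glycan arrays, of which those lacking an available protein sequence were dropped. The binding signal, a within-array Z-score, was averaged across arrays of the same protein sequence and across linkers. Negative scores can be read as non-binding.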
# [2] = target: Neu5Ac(a2-3)Gal(b1-3)GlcNAc(b1-2)Man(a1-3)[GlcNAc(b1-4)][Neu5Ac(a2-3)Gal(b1-3)GlcNAc(b1-2)Man(a1-6)]Man(b1-4)GlcNAc(b1-4)GlcNAc
# How it was run: as §1
# [3] = target: Neu5Ac(a2-3)Gal(b1-3)GlcNAc(b1-2)Man(a1-3)[Neu5Ac(a2-3)Gal(b1-3)GlcNAc(b1-2)Man(a1-6)]Man(b1-4)GlcNAc(b1-4)GlcNAc
# How it was run: as §1
# [4] = target: Neu5Ac(a2-3)Gal(b1-3)GlcNAc(b1-3)Gal(b1-3)GlcNAc
# How it was run: as §1
# [5] = target: Neu5Ac(a2-3)Gal(b1-3)GlcNAc(b1-3)Gal(b1-4)GlcNAc
# How it was run: as §1
# [6] = target: Neu5Ac(a2-3)Gal(b1-3)GlcNAc(b1-3)GalNAc
# How it was run: as §1
# [7] = target: Neu5Ac(a2-3)Gal(b1-3)GlcNAc(b1-4)Gal(b1-4)Glc
# How it was run: as §1
# [8] = target: Neu5Ac(a2-3)Gal(b1-3)GlcNAc(b1-6)GalNAc
# How it was run: as §1
# [9] = target: Neu5Ac(a2-3)Gal(b1-3)GlcNAc6S
# How it was run: as §1
# [10] = target: Neu5Ac(a2-3)Gal(b1-3)[Fuc(a1-4)]GlcNAc
# How it was run: as §1
# [11] = target: Neu5Ac(a2-3)Gal(b1-3)[Fuc(a1-4)]GlcNAc(b1-3)Gal(b1-3)[Fuc(a1-4)]GlcNAc
# How it was run: as §1
# [12] = target: Neu5Ac(a2-3)Gal(b1-3)[Fuc(a1-4)]GlcNAc(b1-3)Gal(b1-4)[Fuc(a1-3)]GlcNAc
# How it was run: as §1
# [13] = target: Neu5Ac(a2-3)Gal(b1-3)[GlcNAc(b1-6)]GalNAc
# How it was run: as §1
# [14] = target: Neu5Ac(a2-3)Gal(b1-3)[Neu5Ac(a2-3)Gal(b1-4)]GlcNAc
# How it was run: as §1
# [15] = target: Neu5Ac(a2-3)Gal(b1-3)[Neu5Ac(a2-6)]GalNAc
# How it was run: as §1
# [16] = target: Neu5Ac(a2-3)Gal(b1-3)[Neu5Ac(a2-6)]GlcNAc(b1-3)[Fuc(a1-3)[Gal(b1-4)]GlcNAc(b1-6)]Gal(b1-4)Glc
# How it was run: as §1
# [17] = target: Neu5Ac(a2-3)Gal(b1-3)]Neu5Ac(a2-3)Gal(b1-4)]GlcNAc
# How it was run: as §1
# Neu5Ac(a2-3)Gal(b1-4)Glc = target: Neu5Ac(a2-3)Gal(b1-4)Glc
# How it was run: as §1
# [18] = target: Neu5Ac(a2-3)Gal(b1-4)GlcNAc
# How it was run: as §1
# [19] = target: Neu5Ac(a2-3)Gal(b1-4)GlcNAc(b1-2)Man
# How it was run: as §1
# [20] = target: Neu5Ac(a2-3)Gal(b1-4)GlcNAc(b1-2)Man(a1-3)[GlcNAc(b1-4)][Neu5Ac(a2-3)Gal(b1-4)GlcNAc(b1-2)Man(a1-6)]Man(b1-4)GlcNAc(b1-4)GlcNAc
# How it was run: as §1
# [21] = target: Neu5Ac(a2-3)Gal(b1-4)GlcNAc(b1-2)Man(a1-3)[Neu5Ac(a2-3)Gal(b1-4)GlcNAc(b1-2)Man(a1-6)]Man(b1-4)GlcNAc(b1-4)GlcNAc
# How it was run: as §1
# [22] = target: Neu5Ac(a2-3)Gal(b1-4)GlcNAc(b1-2)Man(a1-3)[Neu5Ac(a2-3)Gal(b1-4)GlcNAc(b1-2)Man(a1-6)]Man(b1-4)GlcNAc(b1-4)[Fuc(a1-6)]GlcNAc
# How it was run: as §1
# [23] = target: Neu5Ac(a2-3)Gal(b1-4)GlcNAc(b1-2)Man(a1-3)[Neu5Ac(a2-6)Gal(b1-4)GlcNAc(b1-2)Man(a1-6)]Man(b1-4)GlcNAc(b1-4)GlcNAc
# How it was run: as §1
# [24] = target: Neu5Ac(a2-3)Gal(b1-4)GlcNAc(b1-2)[Neu5Ac(a2-3)Gal(b1-4)GlcNAc(b1-4)]Man(a1-3)[GlcNAc(b1-4)][Neu5Ac(a2-3)Gal(b1-4)GlcNAc(b1-2)[Neu5Ac(a2-3)Gal(b1-4)GlcNAc(b1-6)]Man(a1-6)]Man(b1-4)GlcNAc(b1-4)GlcNAc
# How it was run: as §1
# [25] = target: Neu5Ac(a2-3)Gal(b1-4)GlcNAc(b1-2)[Neu5Ac(a2-3)Gal(b1-4)GlcNAc(b1-4)]Man(a1-3)[GlcNAc(b1-4)][Neu5Ac(a2-3)Gal(b1-4)GlcNAc(b1-4)Man(a1-6)]Man(b1-4)GlcNAc(b1-4)GlcNAc
# How it was run: as §1
# [26] = target: Neu5Ac(a2-3)Gal(b1-4)GlcNAc(b1-2)[Neu5Ac(a2-3)Gal(b1-4)GlcNAc(b1-6)]Man(a1-6)[Neu5Ac(a2-3)Gal(b1-4)GlcNAc(b1-2)Man(a1-3)]Man(b1-4)GlcNAc(b1-4)GlcNAc
# How it was run: as §1
# [27] = target: Neu5Ac(a2-3)Gal(b1-4)GlcNAc(b1-2)[Neu5Ac(a2-3)Gal(b1-4)GlcNAc(b1-6)]Man(a1-6)[Neu5Ac(a2-3)Gal(b1-4)GlcNAc(b1-2)Man(a1-3)][GlcNAc(b1-4)]Man(b1-4)GlcNAc(b1-4)GlcNAc
# How it was run: as §1
# [28] = target: Neu5Ac(a2-3)Gal(b1-4)GlcNAc(b1-3)Gal
# How it was run: as §1
# [29] = target: Neu5Ac(a2-3)Gal(b1-4)GlcNAc(b1-3)Gal(b1-3)GlcNAc
# How it was run: as §1
# [30] = target: Neu5Ac(a2-3)Gal(b1-4)GlcNAc(b1-3)Gal(b1-4)GlcNAc
# How it was run: as §1
# [31] = target: Neu5Ac(a2-3)Gal(b1-4)GlcNAc(b1-3)Gal(b1-4)GlcNAc(b1-2)Man(a1-3)[Neu5Ac(a2-3)Gal(b1-4)GlcNAc(b1-3)Gal(b1-4)GlcNAc(b1-2)Man(a1-6)]Man(b1-4)GlcNAc(b1-4)GlcNAc
# How it was run: as §1
# [32] = target: Neu5Ac(a2-3)Gal(b1-4)GlcNAc(b1-3)Gal(b1-4)GlcNAc(b1-3)Gal(b1-4)GlcNAc
# How it was run: as §1
# [33] = target: Neu5Ac(a2-3)Gal(b1-4)GlcNAc(b1-3)Gal(b1-4)GlcNAc(b1-3)Gal(b1-4)GlcNAc(b1-2)Man(a1-3)[Neu5Ac(a2-3)Gal(b1-4)GlcNAc(b1-3)Gal(b1-4)GlcNAc(b1-3)Gal(b1-4)GlcNAc(b1-2)Man(a1-6)]GalNAc
# How it was run: as §1
# [34] = target: Neu5Ac(a2-3)Gal(b1-4)GlcNAc(b1-3)Gal(b1-4)GlcNAc(b1-3)GalNAc
# How it was run: as §1
# [35] = target: Neu5Ac(a2-3)Gal(b1-4)GlcNAc(b1-3)Gal(b1-4)GlcNAc(b1-3)[Neu5Ac(a2-3)Gal(b1-4)GlcNAc(b1-3)Gal(b1-4)GlcNAc(b1-6)]GalNAc
# How it was run: as §1
# [36] = target: Neu5Ac(a2-3)Gal(b1-4)GlcNAc(b1-3)Gal(b1-4)GlcNAc(b1-6)[Gal(b1-3)]GalNAc
# How it was run: as §1
# [37] = target: Neu5Ac(a2-3)Gal(b1-4)GlcNAc(b1-3)Gal(b1-4)[Fuc(a1-3)]GlcNAc
# How it was run: as §1
binder,measurement,setting,value
B1,glycan array binding signal (z-score),[1],-0.317
same,glycan array binding signal (z-score),[2],-0.599
same,glycan array binding signal (z-score),[3],0.016
same,glycan array binding signal (z-score),[4],-0.442
same,glycan array binding signal (z-score),[5],-0.481
same,glycan array binding signal (z-score),[6],-0.111
same,glycan array binding signal (z-score),[7],-0.312
same,glycan array binding signal (z-score),[8],-0.36
same,glycan array binding signal (z-score),[9],0.295
same,glycan array binding signal (z-score),[10],-0.599
same,glycan array binding signal (z-score),[11],-0.165
same,glycan array binding signal (z-score),[12],-0.363
same,glycan array binding signal (z-score),[13],-0.879
same,glycan array binding signal (z-score),[14],-0.164
same,glycan array binding signal (z-score),[15],-0.424
same,glycan array binding signal (z-score),[16],0.121
same,glycan array binding signal (z-score),[17],-1.24
same,glycan array binding signal (z-score),Neu5Ac(a2-3)Gal(b1-4)Glc,-0.248
same,glycan array binding signal (z-score),[18],-0.002
same,glycan array binding signal (z-score),[19],-0.184
same,glycan array binding signal (z-score),[20],-0.275
same,glycan array binding signal (z-score),[21],0.46
same,glycan array binding signal (z-score),[22],-0.829
same,glycan array binding signal (z-score),[23],-0.771
same,glycan array binding signal (z-score),[24],-0.651
same,glycan array binding signal (z-score),[25],-0.357
same,glycan array binding signal (z-score),[26],-0.519
same,glycan array binding signal (z-score),[27],-0.328
same,glycan array binding signal (z-score),[28],-0.358
same,glycan array binding signal (z-score),[29],-0.706
same,glycan array binding signal (z-score),[30],-0.147
same,glycan array binding signal (z-score),[31],1.98
same,glycan array binding signal (z-score),[32],-0.335
same,glycan array binding signal (z-score),[33],3.39
same,glycan array binding signal (z-score),[34],-0.308
same,glycan array binding signal (z-score),[35],-0.025
same,glycan array binding signal (z-score),[36],0.066
same,glycan array binding signal (z-score),[37],-0.417
